The text below walks through data of the supplement of paper PMC3334620.

In all, about 33,000 sequences were measured (“E-score (-0.5 to 0.5)”: median about -0.043, highest 2% from about 0.37 on). This is one part of the list.

In this experiment the target is T1, Upc2 (UniProt Q12151).
T1 sequence: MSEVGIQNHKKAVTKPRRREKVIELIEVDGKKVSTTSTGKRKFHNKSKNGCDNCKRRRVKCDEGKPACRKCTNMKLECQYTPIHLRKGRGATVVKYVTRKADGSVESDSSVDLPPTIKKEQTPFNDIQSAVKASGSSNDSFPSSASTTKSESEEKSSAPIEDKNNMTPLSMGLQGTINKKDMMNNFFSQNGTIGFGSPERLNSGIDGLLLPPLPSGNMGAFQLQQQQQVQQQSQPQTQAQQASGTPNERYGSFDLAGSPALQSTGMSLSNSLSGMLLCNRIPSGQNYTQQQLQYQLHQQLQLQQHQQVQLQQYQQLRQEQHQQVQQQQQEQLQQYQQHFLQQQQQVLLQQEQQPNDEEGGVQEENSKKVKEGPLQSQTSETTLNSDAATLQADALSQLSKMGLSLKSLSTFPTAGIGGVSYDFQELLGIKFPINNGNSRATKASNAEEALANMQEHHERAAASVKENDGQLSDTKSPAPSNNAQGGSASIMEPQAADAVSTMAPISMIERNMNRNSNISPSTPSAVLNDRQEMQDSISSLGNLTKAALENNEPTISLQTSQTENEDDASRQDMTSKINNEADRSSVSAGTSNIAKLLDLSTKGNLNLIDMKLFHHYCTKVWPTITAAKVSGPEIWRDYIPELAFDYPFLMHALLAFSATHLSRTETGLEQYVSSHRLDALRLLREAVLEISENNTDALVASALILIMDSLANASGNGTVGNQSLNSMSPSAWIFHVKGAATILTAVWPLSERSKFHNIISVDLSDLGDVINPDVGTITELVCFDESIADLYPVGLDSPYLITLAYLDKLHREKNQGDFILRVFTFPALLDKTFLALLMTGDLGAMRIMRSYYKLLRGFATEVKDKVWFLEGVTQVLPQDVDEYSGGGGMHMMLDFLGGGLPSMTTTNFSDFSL
Nature of the experiment: PBM E-score (8-mer binding enrichment) (E-score (-0.5 to 0.5)); higher = stronger / more preferred TF binding; most listed sequences are background and not binding sites. Conditions: protein concentration: 200 nM; construct: GST-full length. A digest of the protocol: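 For each ungapped eight-base word taken together with its reverse complement, the Universal PBM Analysis Suite assigned an E-score. Binding data came from GST-tagged yeast transcription factors, applied at about 100-200 nM, on universal all-10-mer Agilent arrays made double-stranded by primer extension. Fluorescent anti-GST marked bound protein, and scans were normalised with masliner.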
CAGATATC: the “PBM E-score” value was -0.185.
As to ACGGTGCC, the “PBM E-score” value was 0.227.
ACAAAGTC: the “PBM E-score” value was -0.0337.
For CCGCTGAC, the “PBM E-score” value is -0.129.
The value for AGTGAAAA was -0.129; that for ACCTAGGT was 0.00316; that for CCCGCACG was -0.0501.
For the sequence CAGAGTGG, the “PBM E-score” value is -0.068.
On to AGAAACAG, for which the “PBM E-score” value is -0.167.
Consider AGACGCCT, for which the “PBM E-score” value was -0.109.
As to GATTACCA, the “PBM E-score” value is -0.0634.
For the sequence AAAGTAGT, the “PBM E-score” value was -0.0437.
In the case of CATTAGGG, the “PBM E-score” value was -0.165.
As for ACGTAGTG, the “PBM E-score” value was -0.111.
On to TCAATCGA, for which the “PBM E-score” value was -0.0272.
As for ATCCCAAA, the “PBM E-score” value is -0.128.
With CCAGGCCC, the “PBM E-score” value was -0.0693.
For the sequence ATTGCCCC, the “PBM E-score” value is -0.283.
In the case of CCTACTAC, the “PBM E-score” value is -0.098.
For the sequence ACATCACA, the “PBM E-score” value is -0.0803.
With GCGTCAGA, the “PBM E-score” value was -0.176.
GCCGATTA: the “PBM E-score” value was 0.00607.
The value for AACTACTA was 0.0312; that for CTGTCAAG was -0.0725; that for GCTTTACC was 0.148.
The same measure for CCTCAAAA: -0.19.
For CTGACAAG, the “PBM E-score” value is -0.0909.
For the sequence GGAACCCC, the “PBM E-score” value was -0.0362.
GGCCTACC: the “PBM E-score” value was -0.221.
In the case of TAACTGGA, the “PBM E-score” value was -0.168.
On to GCCGTGCA, for which the “PBM E-score” value was -0.291.
In the case of CCTCGTAC, the “PBM E-score” value is 0.477.
Take AACTTTTA: the “PBM E-score” value came to 0.273.
In the case of ATGAGTAC, the “PBM E-score” value was 0.143.
As for CCTAGGTC, the “PBM E-score” value is -0.16.
In the case of ATCAAAAG, the “PBM E-score” value is 0.00236.
As for AAGACGCC, the “PBM E-score” value was -0.0653.
The same measure for CTAATATA: 0.0898; for AGGCCAGG: -0.146; for CATGTCGC: 0.136.
The same measure for AGCTAGGC: -0.258; for ACGTCCCA: -0.208.
The same measure for ACTGCGAA: -0.0814.
Turning to AGGGTAGA, the “PBM E-score” value is -0.15.
In the case of GGTACGGA, the “PBM E-score” value came out at 0.355.
Take ATGACTAC: the “PBM E-score” value was determined as 0.0234.
The value for CTAAGCGA was 0.416; that for CCAGTAAG was -0.0281.
Consider GCGCAGCA, for which the “PBM E-score” value is -0.33.
As for GCTCCTAC, the “PBM E-score” value turned out to be 0.0461.
Consider GCAGCGAC, for which the “PBM E-score” value is -0.113.
In the case of GGTTGCCA, the “PBM E-score” value is -0.275.
For the sequence AGCCCCCG, the “PBM E-score” value is -0.142.
As to ACAAGATA, the “PBM E-score” value is -0.0572.
The same measure for CGCCAACG: 0.123.
The value for GGACGGAA was -0.0928; that for GGCACAGA was -0.0746.
For AGCCGCCT, the “PBM E-score” value was -0.201.
Take CGCGGACG: the “PBM E-score” value was -0.103.
ACTCTGAT: the “PBM E-score” value is -0.142.
For the sequence ACTGGCGC, the “PBM E-score” value is -0.0129.
Regarding CCCTTCTA, the “PBM E-score” value was -0.296.
ATTGAACG: the “PBM E-score” value amounted to 0.356.
Turning to ATCGTTGC, the “PBM E-score” value amounted to 0.212.
Take CTGGTAAA: the “PBM E-score” value was -0.0673.
Consider ACGCTTTG, for which the “PBM E-score” value is 0.0831.
The same measure for GCTATCCC: -0.119; for CAGCCTAG: -0.156; for AAGCAAAT: 0.0325.
AGGACCAG: the “PBM E-score” value was -0.266.
For the sequence ATCACGAG, the “PBM E-score” value was found to be 0.0301.
For the sequence AGCGTAAG, the “PBM E-score” value is 0.124.
As for TGTATGAA, the “PBM E-score” value was -0.0102.
Take AACTTCAT: the “PBM E-score” value is -0.0399.
With GGGATTCA, the “PBM E-score” value was -0.143.
On to CCTGTTCG, for which the “PBM E-score” value amounted to 0.161.
For the sequence CCACCTCG, the “PBM E-score” value is 0.0683.
ACTGCCTA: the “PBM E-score” value is -0.0135.
For the sequence AAAAGTAA, the “PBM E-score” value was found to be 0.0218.
The value for CCGAAAGG was -0.132; that for CACGACGG was 0.129.
The value for CGATAGCC was 0.0375; that for AGGTGAAT was -0.0674; that for ACATCCAG was -0.124.
As for AAGGCGCA, the “PBM E-score” value was -0.0582.
Turning to AGAGAAAC, the “PBM E-score” value was -0.0899.
